# The whole screen tested about 310,000 compounds, of which about 14,000 (4.5%) showed an effect of 50% or more. The effect is printed as a negative number. This is one part of the list.
# Target: human ether-à-go-go-related gene (hERG) potassium channel (human, UniProt Q12809)
# Assay: primary screen, population patch clamp on CHO cells stably expressing hERG
# 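Note: peak tail current of the secondary pulse compared with the same well before compound.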
# Chain of human ether-à-go-go-related gene (hERG) potassium channel (Q12809 whole entry, looked up): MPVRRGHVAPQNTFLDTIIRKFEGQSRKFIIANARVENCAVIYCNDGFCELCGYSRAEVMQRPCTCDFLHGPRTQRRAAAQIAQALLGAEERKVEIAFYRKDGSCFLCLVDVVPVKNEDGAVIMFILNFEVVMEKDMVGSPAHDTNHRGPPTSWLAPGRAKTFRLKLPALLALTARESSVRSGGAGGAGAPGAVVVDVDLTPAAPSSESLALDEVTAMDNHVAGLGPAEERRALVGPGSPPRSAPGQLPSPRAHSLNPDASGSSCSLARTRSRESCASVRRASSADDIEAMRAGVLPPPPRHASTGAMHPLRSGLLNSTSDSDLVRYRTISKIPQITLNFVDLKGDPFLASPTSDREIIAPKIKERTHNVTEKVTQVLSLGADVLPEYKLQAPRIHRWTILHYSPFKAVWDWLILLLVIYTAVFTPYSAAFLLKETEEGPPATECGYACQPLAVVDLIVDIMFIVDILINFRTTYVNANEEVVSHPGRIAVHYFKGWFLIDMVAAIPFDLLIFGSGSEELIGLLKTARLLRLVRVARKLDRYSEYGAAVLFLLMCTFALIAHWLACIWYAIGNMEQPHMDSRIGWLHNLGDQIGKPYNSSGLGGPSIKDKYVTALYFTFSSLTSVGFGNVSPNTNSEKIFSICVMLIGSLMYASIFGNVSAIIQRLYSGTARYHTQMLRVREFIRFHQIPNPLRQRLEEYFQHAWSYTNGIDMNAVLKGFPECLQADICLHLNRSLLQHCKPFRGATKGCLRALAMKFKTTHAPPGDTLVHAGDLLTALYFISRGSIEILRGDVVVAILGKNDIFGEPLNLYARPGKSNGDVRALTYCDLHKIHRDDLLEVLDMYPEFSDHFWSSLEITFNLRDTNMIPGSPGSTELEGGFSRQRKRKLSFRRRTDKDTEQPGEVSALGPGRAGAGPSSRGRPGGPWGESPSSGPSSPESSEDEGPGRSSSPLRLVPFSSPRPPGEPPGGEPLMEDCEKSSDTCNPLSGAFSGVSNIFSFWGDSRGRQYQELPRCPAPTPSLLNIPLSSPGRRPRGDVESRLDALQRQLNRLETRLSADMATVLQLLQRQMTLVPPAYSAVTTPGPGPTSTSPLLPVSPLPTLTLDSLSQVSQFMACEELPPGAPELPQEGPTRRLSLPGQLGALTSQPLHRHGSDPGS
row,Compound,"hERG current change (%, negative = inhibition) at 10uM"
1,CCc1nn(CCCN2CCN(c3cccc(Cl)c3)CC2)c(=O)n1CCOc1ccccc1,-63.2%
2,CN1C(=O)c2ccc(NC(=O)c3cccc(N4C(=O)CCC4=O)c3)cc2C1=O,4.17%
3,CC(OC(=O)c1ccncc1)C(=O)Nc1cccc([N+](=O)[O-])c1 (stereo not shown),-10.9%
4,Cc1ccc(C2=NCCn3c2c2ccccc2[n+]3[O-])cc1,-4.88%
5,NC(=O)c1ccccc1NC(=O)Nc1cccc2ccccc12,21.1%
6,c1ccc(-c2nnc(CN3CCCc4ccccc43)o2)cc1,-19.4%
7,Cc1cc(C)nc(Sc2ccc3nnc(C(F)(F)C(F)(F)C(F)(F)F)n3n2)n1,16.7%
8,Cc1ccc(C(=O)N/C(=C\c2ccc(-c3ccc(Br)cc3)o2)C(=O)NCCCN(C)C)cc1,-80.3%
9,Cc1ccc(OCCOc2ccc(Br)cc2/C=N\NC(N)=O)cc1,15.9%
10,COc1cccc(NC(=O)/C=C/c2ccc([N+](=O)[O-])cc2)c1,-19.5%
11,Nc1c(N(C(=O)Nc2ccc(Cl)c(Cl)c2)C2CCCC2)c(=O)[nH]c(=O)n1Cc1ccccc1,24.7%
12,COc1ccc(N2CCN(CCNC(=O)Nc3cccc(C)c3C)CC2)cc1,2.59%
13,O=C(N/N=C/c1cccc([N+](=O)[O-])c1)c1cc2ccccc2o1,17.5%
14,Cc1c([N+](=O)[O-])c(N)nn1C,15.5%
15,Cc1cc(C)c(-c2cc(C(=O)Nc3cc(C)ccc3C)[nH]n2)c(O)c1,17.3%
16,CCN1CCN(CC(=O)NC2CCCC2)C(=O)C1=O,-4.52%
17,CCN(CC)CCCNC(=O)c1cc(-c2ccc(O)cc2)on1,-37.3%
18,NS(=O)(=O)c1ccc(N/C=C\C(=O)c2ccncc2)cc1,-1.26%
19,COc1ccc(-c2nc3ccccc3[nH]2)cc1,-10.5%
20,CCOC(=O)C1CCN(C(=O)C2CCN(S(=O)(=O)N3CCC4(CC3)OCCO4)CC2)CC1,18.4%
21,CSc1nnc(-c2ccccc2SC)o1,6.43%
22,Cc1cc(C)cc(NC(=O)CSCc2nc3c(nnn3Cc3ccc(F)cc3)c(=O)[nH]2)c1,9.81%

row,Compound,"hERG current change (%, negative = inhibition) at 10uM"
1,CCC(=O)N1N=C(c2ccc(C)o2)CC1c1ccc(N(C)C)cc1 (stereo not shown),-2.39%
2,CC(O)c1cccc(NC(=O)Cc2cccc3ccccc23)c1 (stereo not shown),16.9%
3,Nc1nc(NC(=O)c2cccs2)nn1-c1ccccc1,4.89%
4,CSc1nc2c(c(=O)n1-c1ccccc1)SCC2,6.28%
5,CCN(CC(=O)Nc1ccc(Br)c(C)c1)CC(=O)NC(C)C,-4.86%
6,Cc1cc(C)nc(N2N=C(c3ccccc3)CC2=O)n1,4.31%
7,Cc1nn(Cc2ccccc2Cl)c2sc(C(=O)NCc3ccc4c(c3)OCO4)cc12,3.08%
8,Cc1ccccc1OCCCCc1c(C)n[nH]c1C,1.24%
9,COc1cc(/C=N/NC(=O)CNC(=O)c2cccs2)ccc1O,2.5%
10,COc1ccc(C(=O)CN2C(=O)c3ccccc3C2=O)cc1,7.16%
11,C#CCOCCOCCOCCNc1nc(N2CCN(C(=O)[C@H]([C@@H](C)CC)n3cc([C@@H](N)Cc4ccc(O)cc4)nn3)CC2)nc(N2CCN(C(=O)[C@H](Cc3cc4ccccc4[nH]3)n3cc([C@@H](N)CC(C)C)nn3)CC2)n1.Cl,20.4%
12,O=C(/C=C/c1ccc(S(=O)(=O)N2CCOCC2)cc1)NC(=S)NCCCn1ccnc1,-39.1%
13,O=C(NCCN1CCCCC1)c1ccc(/C=N/O)nc1,13.6%
14,CN1C(=O)Cc2cc(S(=O)(=O)NCc3cccs3)ccc21,5.48%
15,CCN(CC)S(=O)(=O)c1cc(NC(=O)C2CSC3(C)CCC(=O)N23)ccc1C (stereo not shown),-27.5%
16,O=C(NCCCc1ccncc1)C1CCC(=O)N(Cc2cccc(C(F)(F)F)c2)C1 (stereo not shown),-18.7%
17,O=C(NNC(=S)Nc1ccc(Cl)cc1)c1cccs1,14.7%
18,Cc1cccc(CCNS(=O)(=O)c2ccc3c(c2)NC(=O)CS3)c1,1.64%
19,Cc1ccc(OCCNC(=O)Cn2cnc3c(=O)n(C)c(=O)n(C)c32)cc1C,10%
20,O=C(c1ccc2c(c1)OCO2)C1CCCN(Cc2c(F)cccc2Cl)C1 (stereo not shown),-32.5%
21,c1ccc(-c2nccc(-c3ccc4c(c3)OCO4)n2)cc1,12.9%
22,S=C1NCN(Cc2ccco2)CN1,12.2%

row,Compound,"hERG current change (%, negative = inhibition) at 10uM"
1,CC(C)(C)OC(=O)N1CCOCCOCCN(C(=O)OC(C)(C)C)CCOCC1,-2.05%
2,CCn1c(C(Cc2ccccc2)NC(=O)COC)nc2ccccc21 (stereo not shown),-8.89%
3,CCN1CCN(CC(=O)N2N=CCC2c2ccccc2)CC1 (stereo not shown),3.12%
4,COc1ccc(NC(=O)CSc2nnc(NC(=O)CN3CCOCC3)s2)cc1,19.2%
5,Cc1ccc(-n2nc(C)c(NC(=O)CCl)c2C)cc1C,-8%
6,COc1nccnc1NS(=O)(=O)c1ccc(NC(=O)c2ccccc2Br)cc1,17.4%
7,c1ccc(N2CCN(c3nc4ccccc4[nH]3)CC2)nc1,-64.4%
8,Cc1nn(CCc2n[nH]c(=S)n2-c2ccc(F)cc2)c(C)c1[N+](=O)[O-],21.3%
9,Cc1cc(C)c2cc(C#N)c(SCC(=O)Nc3cc(C)on3)nc2c1,6.84%
10,O=C(CSCC(=O)Nc1ccccc1)N/N=C/c1c(O)ccc2ccccc12,-5.17%
11,COc1ccc(-c2nc(CN3CCN(Cc4ccccc4)CC3)c(C)o2)cc1,-42.2%
12,COCc1cc(C)nc(SCC(=O)Nc2ccc3c(c2)OCO3)c1C#N,9.96%
13,CC(=O)Cc1nsc(NC(=O)c2ccc(-c3cccc(Cl)c3)o2)n1,10.4%
14,Cc1ccc(OC(C)C(=O)Nc2ccncc2)cc1C (stereo not shown),9.92%
15,COc1c2c(cc3c1OCO3)CC[N+](C)=C2.[I-],-0.238%
16,COc1ccc(-c2cnc(SCC(=O)Nc3cc(C)on3)n2Cc2ccco2)cc1,3.14%
17,Cc1nn(-c2ccc(Cl)nn2)c(=O)c2ccccc12,-3.04%
18,CC(C)C(C)NC(=O)COc1ncnc2ccccc12 (stereo not shown),15.3%
19,CN(C[C@H](c1ccccc1)N(C[C@H](Cc1ccccc1)N(CCc1ccccc1)N=O)N=O)N=O.[Na+],3.22%
20,O=[N+]([O-])c1ccc(/C=N/Nc2nc3ccccc3o2)cc1,22.6%
21,COc1cccc(C(=O)Cn2c(=O)n(CCC(=O)NCC3CCCO3)c(=O)c3cc(OC)c(OC)cc32)c1 (stereo not shown),-19.5%
22,Cn1c(=NC(=O)c2ccco2)sc2cccc(F)c21,-7.05%

row,Compound,"hERG current change (%, negative = inhibition) at 10uM"
1,O=C(CSc1nc(O)c(Cc2ccccc2)c(=O)[nH]1)Nc1nc2c(s1)CCCC2,25.1%
2,COc1ccc(-c2cc(-c3ccc(OC)cc3)nc(-c3ccc4c(c3)NC(=O)CO4)c2)cc1,-1.3%
3,CC(C)N1CCN(Cc2cc(F)ccc2-n2cccn2)CC1CCO (stereo not shown),11.2%
4,Cc1cc(C)n(S(=O)(=O)c2cc(Cl)ccc2Cl)n1,-2.9%
5,Cc1cc(C)cc(NC(=O)c2cc(C)nc3ccccc23)c1,3.97%
6,CCc1ccc(-n2nc3ccc(NC(=O)c4ccc5c(c4)OCO5)cc3n2)cc1,0.229%
7,O=[N+]([O-])c1cccc(/C=N\N=C2c3ccccc3-c3ccccc32)c1O,-4.7%
8,CCOc1ccc(S(=O)(=O)N(CC(=O)O)c2ccccc2)cc1,6.99%
9,c1ccc(Oc2cccc(OCCCCSc3ncccn3)c2)cc1,7.47%
10,CCCCOc1ccc(C2(C)NC(=O)N(C)C2=O)cc1 (stereo not shown),13%
11,COc1ccc(C2c3cc(OC)c(OC)cc3CCN2C2CC(=O)N(c3ccccc3)C2=O)cc1OC (stereo not shown),3.25%
12,CN(C)c1ccc(-c2nc3cc(N)ccc3o2)cc1,6.31%
13,CC1CCN(CCc2nc3cc(NC(=O)Nc4ccccc4)ccc3n2C)CC1,-44.4%
14,Cc1oc2c(c1C(=O)Nc1cccc(C(=O)O)c1)CCCC2,9.24%
15,COc1ccccc1C(=O)NCCNc1ccc([N+](=O)[O-])cc1Cl,7.12%
16,COc1ccc2cc(C(=O)C3CCCN(C4CCOCC4)C3)ccc2c1 (stereo not shown),-63.5%
17,CCOC(=O)C(NCc1ccco1)(NC(=O)c1ccc(OC)cc1)C(F)(F)F (stereo not shown),8.05%
18,CN(C(=O)CN1CCCCCC1)c1c(N)n(Cc2ccccc2)c(=O)[nH]c1=O,8.69%
19,O=S(=O)(c1ccc(OCC(O)CN2CCc3ccccc3C2)cc1)N1CCOCC1 (stereo not shown),-4.43%
20,Clc1ccc(-c2c[n+](Cc3ccc(Cl)cc3Cl)c3n2CCCCC3)cc1.[Br-],-66%
21,CCCc1nc2c(s1)CCc1onc(-c3ccc(Cl)cc3)c1-2,16.7%
22,Cc1ccc(NC(=O)N2CCC(O)(c3cccnc3)CC2)cc1,5.23%

# From publication PMC4336329 (PLoS ONE, 2015)
